# Reference: PMC9911399, “Two distinct binding modes provide the RNA-binding protein RbFox with extraordinary sequence specificity”
# Where a chain is given by its changes, count along the chain named. Some of the results follow.
# T1: RBFOX1 RRM (Homo sapiens, UniProt Q9NWB1 109-208)
# T1 sequence: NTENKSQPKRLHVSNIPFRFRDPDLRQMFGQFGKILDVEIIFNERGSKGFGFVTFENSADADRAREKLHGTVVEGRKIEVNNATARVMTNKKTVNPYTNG
# B1: UUCAGCA (DNA:RNA)
# RNA: GGGAGACCGGAAUUCAGAUUGUCCUUCAGCAUUAAAUCCCGUCGUAGCCACCA
# DNA 1: CAATCTGAATTCCGGTCTCCC
# DNA 2: TGGTGGCTACGACGGGATT
# B2: ACUGGGG (DNA:RNA)
# RNA: B1 RNA with U25A, U26C, C27U, A28G, C30G, A31G
# DNA 1: CAATCTGAATTCCGGTCTCCC
# DNA 2: TGGTGGCTACGACGGGATT
# B3: AAAUUAA (DNA:RNA)
# RNA: B1 RNA with U25A, U26A, C27A, A28U, G29U, C30A
# DNA 1: CAATCTGAATTCCGGTCTCCC
# DNA 2: TGGTGGCTACGACGGGATT
# B4: GGGCACA (DNA:RNA)
# RNA: B1 RNA with U25G, U26G, C27G, A28C, G29A
# DNA 1: CAATCTGAATTCCGGTCTCCC
# DNA 2: TGGTGGCTACGACGGGATT
# B5: ACUGGUU (DNA:RNA)
# RNA: B1 RNA with U25A, U26C, C27U, A28G, C30U, A31U
# DNA 1: CAATCTGAATTCCGGTCTCCC
# DNA 2: TGGTGGCTACGACGGGATT
# B6: CAAUUAU (DNA:RNA)
# RNA: GGGAGACCGGAAUUCAGAUUGUCCCAAUUAUUUAAAUCCCGUCGUAGCCACCA
# DNA 1: CAATCTGAATTCCGGTCTCCC
# DNA 2: TGGTGGCTACGACGGGATT
# B7: ACAACUG (DNA:RNA)
# RNA: B6 RNA with C25A, A26C, U28A, U29C, A30U, U31G
# DNA 1: CAATCTGAATTCCGGTCTCCC
# DNA 2: TGGTGGCTACGACGGGATT
# B8: CUUUUGC (DNA:RNA)
# RNA: B6 RNA with A26U, A27U, A30G, U31C
# DNA 1: CAATCTGAATTCCGGTCTCCC
# DNA 2: TGGTGGCTACGACGGGATT
# B9: UAGGGCU (DNA:RNA)
# RNA: B1 RNA with U26A, C27G, A28G, A31U
# DNA 1: CAATCTGAATTCCGGTCTCCC
# DNA 2: TGGTGGCTACGACGGGATT
# B10: AGACGUG (DNA:RNA)
# RNA: B6 RNA with C25A, A26G, U28C, U29G, A30U, U31G
# DNA 1: CAATCTGAATTCCGGTCTCCC
# DNA 2: TGGTGGCTACGACGGGATT
# B11: GUUACCU (DNA:RNA)
# RNA: B1 RNA with U25G, C27U, G29C, A31U
# DNA 1: CAATCTGAATTCCGGTCTCCC
# DNA 2: TGGTGGCTACGACGGGATT
# B12: GUCAGGA (DNA:RNA)
# RNA: B1 RNA with U25G, C30G
# DNA 1: CAATCTGAATTCCGGTCTCCC
# DNA 2: TGGTGGCTACGACGGGATT
# B13: CUUCAGG (DNA:RNA)
# RNA: B6 RNA with A26U, A27U, U28C, U29A, A30G, U31G
# DNA 1: CAATCTGAATTCCGGTCTCCC
# DNA 2: TGGTGGCTACGACGGGATT
# B14: AUUAGAG (DNA:RNA)
# RNA: B1 RNA with U25A, C27U, C30A, A31G
# DNA 1: CAATCTGAATTCCGGTCTCCC
# DNA 2: TGGTGGCTACGACGGGATT
# B15: UCCUGCU (DNA:RNA)
# RNA: B1 RNA with U26C, A28U, A31U
# DNA 1: CAATCTGAATTCCGGTCTCCC
# DNA 2: TGGTGGCTACGACGGGATT
# B16: UGGAGCG (DNA:RNA)
# RNA: B1 RNA with U26G, C27G, A31G
# DNA 1: CAATCTGAATTCCGGTCTCCC
# DNA 2: TGGTGGCTACGACGGGATT
# B17: GGCUUCA (DNA:RNA)
# RNA: B1 RNA with U25G, U26G, A28U, G29U
# DNA 1: CAATCTGAATTCCGGTCTCCC
# DNA 2: TGGTGGCTACGACGGGATT
# B18: UGACGGG (DNA:RNA)
# RNA: B1 RNA with U26G, C27A, A28C, C30G, A31G
# DNA 1: CAATCTGAATTCCGGTCTCCC
# DNA 2: TGGTGGCTACGACGGGATT
# B19: GCGUGGU (DNA:RNA)
# RNA: B6 RNA with C25G, A26C, A27G, U29G, A30G
# DNA 1: CAATCTGAATTCCGGTCTCCC
# DNA 2: TGGTGGCTACGACGGGATT
# B20: UACCAAC (DNA:RNA)
# RNA: B6 RNA with C25U, A27C, U28C, U29A, U31C
# DNA 1: CAATCTGAATTCCGGTCTCCC
# DNA 2: TGGTGGCTACGACGGGATT
# B21: CUUUCUC (DNA:RNA)
# RNA: B6 RNA with A26U, A27U, U29C, A30U, U31C
# DNA 1: CAATCTGAATTCCGGTCTCCC
# DNA 2: TGGTGGCTACGACGGGATT
# B22: GAUCUUA (DNA:RNA)
# RNA: B6 RNA with C25G, A27U, U28C, A30U, U31A
# DNA 1: CAATCTGAATTCCGGTCTCCC
# DNA 2: TGGTGGCTACGACGGGATT
# B23: UAACCUC (DNA:RNA)
# RNA: B6 RNA with C25U, U28C, U29C, A30U, U31C
# DNA 1: CAATCTGAATTCCGGTCTCCC
# DNA 2: TGGTGGCTACGACGGGATT
# B24: AAACUAU (DNA:RNA)
# RNA: B6 RNA with C25A, U28C
# DNA 1: CAATCTGAATTCCGGTCTCCC
# DNA 2: TGGTGGCTACGACGGGATT
# B25: UAGCGUA (DNA:RNA)
# RNA: B1 RNA with U26A, C27G, A28C, C30U
# DNA 1: CAATCTGAATTCCGGTCTCCC
# DNA 2: TGGTGGCTACGACGGGATT
# B26: CACCGAA (DNA:RNA)
# RNA: B6 RNA with A27C, U28C, U29G, U31A
# DNA 1: CAATCTGAATTCCGGTCTCCC
# DNA 2: TGGTGGCTACGACGGGATT
# B27: CAGUGUG (DNA:RNA)
# RNA: B6 RNA with A27G, U29G, A30U, U31G
# DNA 1: CAATCTGAATTCCGGTCTCCC
# DNA 2: TGGTGGCTACGACGGGATT
# B28: UCUAGGC (DNA:RNA)
# RNA: B1 RNA with U26C, C27U, C30G, A31C
# DNA 1: CAATCTGAATTCCGGTCTCCC
# DNA 2: TGGTGGCTACGACGGGATT
# B29: CCGUAAC (DNA:RNA)
# RNA: B6 RNA with A26C, A27G, U29A, U31C
# DNA 1: CAATCTGAATTCCGGTCTCCC
# DNA 2: TGGTGGCTACGACGGGATT
# B30: AUGAAUU (DNA:RNA)
# RNA: B1 RNA with U25A, C27G, G29A, C30U, A31U
# DNA 1: CAATCTGAATTCCGGTCTCCC
# DNA 2: TGGTGGCTACGACGGGATT
# B31: GCGAUAU (DNA:RNA)
# RNA: B6 RNA with C25G, A26C, A27G, U28A
# DNA 1: CAATCTGAATTCCGGTCTCCC
# DNA 2: TGGTGGCTACGACGGGATT
# Target: T1, RBFOX1 RRM
# Experiment: EMSA; HiTS-Eq, 1 nM pool, 10 min; buffer printed only for the single-RNA assays: 10 mM Tris pH 7.5, 150 mM NaCl, 3.4 mM EDTA, 0.001% NP-40, 30 C
# Conditions: tags: His6 N-terminal (pET28a); label: 5' 32P
# Summary of the method: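 A pool of RNA with 7 randomized nucleotides, 5′-radiolabelled and with DNA-annealed flanks, was equilibrated at 1 nM for 10 min in 50 µL with purified RbFox RRM, wild type or mutant, across increasing protein concentrations. Free RNA was separated by 8% native PAGE, excised, reverse-transcribed, barcoded by PCR and sequenced. Relative association constants were obtained from read-count changes of each RNA species versus the control reaction and normalised to the cognate motif.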
row,Binder,binding signal
1,B1,0.015 KA relative to UGCAUGU
2,B2,0.0129 KA relative to UGCAUGU
3,B3,0.00133 KA relative to UGCAUGU
4,B4,0.00969 KA relative to UGCAUGU
5,B5,0.0137 KA relative to UGCAUGU
6,B6,0.000161 KA relative to UGCAUGU
7,B7,0.00252 KA relative to UGCAUGU
8,B8,0.0212 KA relative to UGCAUGU
9,B9,0.00738 KA relative to UGCAUGU
10,B10,0.0104 KA relative to UGCAUGU
11,B11,0.00787 KA relative to UGCAUGU
12,B12,0.00085 KA relative to UGCAUGU
13,B13,0.00919 KA relative to UGCAUGU
14,B14,0.00722 KA relative to UGCAUGU
15,B15,0.0144 KA relative to UGCAUGU
16,B16,0.0271 KA relative to UGCAUGU

row,Binder,binding signal
1,B17,0.00605 KA relative to UGCAUGU
2,B18,0.0111 KA relative to UGCAUGU
3,B19,0.0238 KA relative to UGCAUGU
4,B20,0.0015 KA relative to UGCAUGU
5,B21,0.0114 KA relative to UGCAUGU
6,B22,0.00791 KA relative to UGCAUGU
7,B23,0.00423 KA relative to UGCAUGU
8,B24,0.00187 KA relative to UGCAUGU
9,B25,0.0113 KA relative to UGCAUGU
10,B26,0.00169 KA relative to UGCAUGU
11,B27,0.0134 KA relative to UGCAUGU
12,B28,0.00923 KA relative to UGCAUGU
13,B29,0.00745 KA relative to UGCAUGU
14,B30,0.0047 KA relative to UGCAUGU
15,B31,0.00908 KA relative to UGCAUGU
